Experimental data from PubChem BioAssay AID504339 (National Center for Advancing Translational Sciences (NCATS), 2011).
About 17,000 (4.4%) of roughly 390,000 compounds were called active. The shares of active, inactive and inconclusive entries below differ from those in the screen. Calls come from the whole dose curve; as a rule, active = well fitted inhibition curve with a large enough effect; inconclusive = small, poorly fitted or top-dose-only effect; inactive = no such curve, though single readings can be large or run the other way. Potencies beside an inconclusive call are fits to weak or partial responses and may not hold up.

Target: Lysine-specific demethylase 4A (Homo sapiens) (UniProt O75164)
Sequence of UniProt O75164 (O75164 whole entry, looked up, the tested form may be a part): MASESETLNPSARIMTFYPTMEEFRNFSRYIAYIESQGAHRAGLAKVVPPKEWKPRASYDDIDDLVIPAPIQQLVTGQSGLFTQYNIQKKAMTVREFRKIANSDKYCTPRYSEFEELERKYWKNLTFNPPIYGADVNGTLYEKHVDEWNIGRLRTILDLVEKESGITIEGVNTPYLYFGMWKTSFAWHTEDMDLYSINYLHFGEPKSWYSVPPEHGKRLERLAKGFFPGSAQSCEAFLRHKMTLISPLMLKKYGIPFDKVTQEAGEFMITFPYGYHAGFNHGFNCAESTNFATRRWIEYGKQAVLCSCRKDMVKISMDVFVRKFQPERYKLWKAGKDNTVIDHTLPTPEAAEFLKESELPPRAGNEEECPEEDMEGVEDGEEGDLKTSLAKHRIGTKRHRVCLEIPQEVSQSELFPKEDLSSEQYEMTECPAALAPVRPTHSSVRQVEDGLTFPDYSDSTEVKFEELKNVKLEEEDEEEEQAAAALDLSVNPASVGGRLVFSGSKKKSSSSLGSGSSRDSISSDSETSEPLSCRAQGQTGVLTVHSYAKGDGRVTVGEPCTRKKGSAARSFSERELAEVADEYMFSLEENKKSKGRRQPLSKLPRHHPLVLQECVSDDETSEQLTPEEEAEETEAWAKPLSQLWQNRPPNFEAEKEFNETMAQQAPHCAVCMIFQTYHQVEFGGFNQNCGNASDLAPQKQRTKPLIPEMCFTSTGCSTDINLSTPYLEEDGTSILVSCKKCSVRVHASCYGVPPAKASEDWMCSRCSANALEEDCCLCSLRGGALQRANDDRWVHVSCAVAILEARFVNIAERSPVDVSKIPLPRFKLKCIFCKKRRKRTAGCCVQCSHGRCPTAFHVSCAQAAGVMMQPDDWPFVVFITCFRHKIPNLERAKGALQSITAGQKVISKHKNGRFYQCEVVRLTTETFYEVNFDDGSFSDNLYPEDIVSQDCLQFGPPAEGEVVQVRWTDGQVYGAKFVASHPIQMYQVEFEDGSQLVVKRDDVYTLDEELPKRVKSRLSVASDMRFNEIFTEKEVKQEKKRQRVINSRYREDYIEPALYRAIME
Assay: qHTS Assay for Inhibitors of JMJD2A-Tudor Domain; note: nearly all actives have a fitted effect of over 50% in size
Conditions: AlphaScreen JMJD2A-Tudor / H3K4me3 peptide binding; activity change, negative = inhibition: at 114 µM (top of the series)
Source text: JMJD2A is a jumonji-domain-containing lysine demethylase that uses Fe(II) together with 2-OG to effect oxidative demethylation of histones. Methylation is one of many […] modification that affect epigenetic transcription. […] It is proposed that the functions of JmjD2A binding to the histones, is to maintain marks after they are installed and to spread the modifications by […], establishing a self-propagating cycle for rapid methylation over a large area of chromatin. […] Thus, small molecule targeting of the JMJD2A-tudor domain interaction with its target methylhistone mark is expected to enable sophisticated experiments probing the fine regulatory pathways leading to selective demethylation of a given methyllysine locus based on the methylation state of adjacent histone marks. A quantitative high throughput AlphaScreen has been developed to identify small molecule inhibitors based on a protocol published by NCGC and SGC [4].
Although AlphaScreen has significant advantages with its utility in a variety of epigenetic target assays, the primary screening data provided in this deposition should be used with caution due to the prevalence of screening artifacts. The top compound concentration tested was high (>100uM) in this assay, which increases number of actives and potential artifacts. An AlphaScreen counterscreen is highly recommended to be run against any putative actives to eliminate non-specific artifacts. Alternatively, one can use other AlphaScreen assays in PubChem to filter out promiscuous hits.
[1] Lee, J. et al. Distinct binding modes specify the recognition of methylated histone H3K4 and H4K20 by JMJD2A-tudor. Nat Struct Mol Biol. 15(1); 109-11. 2008. PMID: 18084306
[2] Yasgar, et al. Compound Management for Quantitative High-Throughput Screening. JALA. 2008 Apr;13(2):79-89. PMID: 18496600
[3] Inglese, et al. Quantitative high-throughput screening: a titration-based approach that efficiently identifies biological activities in large chemical libraries. Proc Natl Acad Sci. 1;103(31):11473-8. 2006. PMID: 16864780
[4] Quinn et al. A homogeneous method for investigation of methyl-dependent protein-protein interactions in epigenetics. Nucleic Acids Res., 38(2):e11. 2010. PMID: […]
[5] Baell,Holloway. New substructure filters for removal of pan assay interference compounds (PAINS) from screening libraries and for their exclusion in bioassays. J Med Chem. 53(7):2719-40. 2010. PMID: 20131845
NIH Molecular Libraries Probe Production Network [MLPCN]
NIH Chemical Genomics Center [NCGC]
Structural Genomics Consortium (SGC)
To each well of a 1,536w plate, 2ul of JMJD2A-Tudor (final 100nM) and 1ul biotinylated histone peptide methylated at Lys4 [b-H3(1-18)K4me3] (final 50nM) were added in 1x PBS buffer, pH 7.4, containing 0.01% Tween-20, using a nanoliter dispenser. Formation of a protein-peptide complex proceeded at room temperature for 30 min. A Kalypsys pin-tool transferred 23nl of library compound solution in DMSO to each well. Following a 30 min incubation of the protein-peptide complex with compounds at room temperature, a mixture of 40 µg/mL each streptavidin-coated donor and nickel chelate acceptor AlphaScreen beads (final 10 µg/mL) was added in a 1ul dispense for a final volume of 4ul, followed by a brief centrifugation (1000 rpm, 1 min). Plates were incubated protected from the light for 20 min at room temperature. Microplates were then read on an EnVision multilabel plate reader using the 1,536 plate HTS AlphaScreen aperture (excitation time 80 ms, measurement time 240 ms).
% is set by controls: 0 for no effect and ±100 for the full control effect; potency is the fitted concentration of half-maximal effect; tags give direction and shape of the fitted curve.

| SMILES | Potency | activity change, negative = inhibition |
| --- | --- | --- |
| O=C(Nc1nnc(-c2ccco2)o1)C1CCCCC1 | active: 89.1 µM |  |
| N#CC1=C(N)NC(=S)C(C(N)=O)C1c1ccc([N+](=O)[O-])cc1 (stereo unspecified) | active: 89.1 µM |  |
| Cc1nn(-c2ccccc2)c(C)c1/C=N/NC(=O)c1cc(-c2cccs2)[nH]n1 | inconclusive: 56.2 µM [inhibitor, partial curve] |  |
| Cc1ccc(Cn2c(SCC(=O)Nc3cc(C)on3)nc3ccccc3c2=O)cc1 | inconclusive: 89.1 µM [inhibitor, single point] |  |
| CCN(CC)C(=O)CSc1nnc(CCN)o1 | inconclusive: 89.1 µM [inhibitor, partial curve] |  |
| COc1cc(/C=C/C(=O)c2ccc(Cl)s2)cc(OC)c1O | inconclusive: 50.1 µM [inhibitor, partial curve] |  |
| C(=N\Nc1nc2ccccc2[nH]1)/c1ccccn1 | inconclusive: 44.7 µM [inhibitor, partial curve] |  |
| Cc1ccc(Nc2nc(NCCCN3CCOCC3)nc(N)c2[N+](=O)[O-])cc1C | inconclusive: 50.1 µM [inhibitor, partial curve] |  |
| Cc1ccc(N=Nc2c(C)[nH]n(-c3ccccc3)c2=O)c(C)c1 | active: 11.2 µM |  |
| CCN(CC)S(=O)(=O)c1ccc(C(=O)Nc2nnc(NC(=S)Nc3ccccc3)s2)cc1 | inconclusive: 8.91 µM [inhibitor, single point] |  |
| CC(C)(C)NC(=O)C(c1cccs1)N(CC1CCCO1)C(=O)c1ccc(-c2ccccc2)[nH]1 (stereo unspecified) | inconclusive: 31.6 µM [inhibitor, partial curve] |  |
| Cc1cccc(NC(=S)Nc2cccc(C(F)(F)F)c2)n1 |  | inactive: -7.59% |
| Cc1ccccc1OCC(=O)OCc1cc(=O)n2ccsc2n1 |  | inactive: -3% |
| CCN(CC)S(=O)(=O)c1ccc2c(c1)N(CC(=O)N1CCN(c3cccc(C(F)(F)F)c3)CC1)C(=O)CO2 |  | inactive: -21.2% |
| COc1ccc(C2N(c3ccc(C)cc3)CCN2c2ccc(C)cc2)cc1O | active: 28.2 µM |  |
| CC(O)CNCc1ccc(Cl)cc1Cl (stereo unspecified) |  | inactive: -7.64% |
| CCCNS(=O)(=O)c1ccc(OCC(=O)N2CCCC2)cc1 |  | inactive: -0.687% |
| COc1ccc2cc(C(=O)NCc3ccco3)c(=Nc3ccc(C(=O)O)cc3)oc2c1 | inconclusive: 50.1 µM [inhibitor, partial curve] |  |
| Cc1[nH]c2ccccc2c1N=Nc1ccccc1C(=O)O | inconclusive: 89.1 µM [inhibitor, partial curve] |  |
| Cc1ccc(NC(=O)Cn2c(-c3ccc4c(c3)OCO4)cn(-c3ccccc3)c2=O)cc1C | inconclusive: 1.12 µM [inhibitor, full curve, poor fit] |  |
| Cc1c(C(=O)NNC(=S)Nc2cccc(Cl)c2)nnn1-c1ccccc1 | inconclusive: 35.5 µM [inhibitor, partial curve] |  |
| NC1(C#Cc2ccc3oc(=O)c(-n4cc(C5(O)CCCCC5)nn4)cc3c2)CCCCC1 | inconclusive: 20 µM [inhibitor, partial curve] |  |
| CN1CCN(c2nc(-c3ccccc3O)nc3ccccc23)CC1 | inconclusive: 89.1 µM [inhibitor, partial curve] |  |
| CCCCCc1cc(=O)oc2c(C(CCN3CCN(c4ccccc4)CC3)c3ccc(N(C)C)cc3)c(OC)cc(OC)c12 (stereo unspecified) | active: 22.4 µM |  |

| SMILES | Potency | activity change, negative = inhibition |
| --- | --- | --- |
| CC(C)OC(=O)CSc1nnc(-c2ccccn2)n1N | inconclusive: 50.1 µM [inhibitor, partial curve] |  |
| CCOc1cnc(-c2ccc(Cl)cc2)o1 |  | inactive: 8.68% |
| Cn1c(SCC(=O)N2CCCC2)nc2cccnc21 |  | inactive: 8.03% |
| O=C(CC1N=C2c3ccccc3N=C(SCc3ccccc3Cl)N2C1=O)NCc1ccco1 (stereo unspecified) | inconclusive: 70.8 µM [inhibitor, single point] |  |
| COC(=O)c1ccc(Nc2ncnc3c2nc2n3CCCC2)cc1 |  | inactive: -15.2% |
| Cc1ccccc1OCc1ccc(-c2nc(C#N)c(NCCCN(C)C)o2)o1 | inconclusive: 50.1 µM [inhibitor, partial curve] |  |
| O=c1[nH]c(-c2ccccc2)nc(CN2CCCCC2)c1O | inconclusive: 14.1 µM [inhibitor, full curve, poor fit] |  |
| CCOC(=O)c1c(C)[nH]c(N=Nc2ccccc2C)c1C | active: 25.1 µM |  |
| COc1ccccc1CN1CC(C(=O)NCc2nccn2C)CCC1=O (stereo unspecified) | inconclusive: 12.6 µM [inhibitor, partial curve] |  |
| Cc1c(C(=O)N2CCN(c3ncccn3)CC2)oc2c(Cl)cccc12 | inconclusive: 35.5 µM [inhibitor, single point] |  |
| CSc1cccc(N2CC(C(=O)Nc3ccccc3N3CCCC3)CC2=O)c1 (stereo unspecified) | inconclusive: 89.1 µM [inhibitor, partial curve] |  |
| COc1cc(OC)cc(C(=O)NC(=S)Nc2cccnc2)c1 |  | inactive: -7.53% [at 11.4 µM] |
| COc1cccc(NC(=O)COC(=O)c2ccc(S(=O)(=O)NCc3ccco3)cc2)c1 | active: 35.5 µM |  |
| Cc1ccc(-c2c(C(=O)O)c(C(=O)O)c3n2CCC3)cc1 | inconclusive: 39.8 µM [inhibitor, single point] |  |
| CCn1c2ccccc2c2cc(CNCc3ccc(OC)cc3OC)ccc21 | inconclusive: 79.4 µM [inhibitor, partial curve] |  |
| CCOC(=O)c1sc(NC(=O)c2cc(-c3ccc(C)cc3)nc3ccccc23)c(C#N)c1C | active: 79.4 µM |  |
| Cc1cc(C)c(NC(=O)/C=C\C(=O)O)c([N+](=O)[O-])c1 | inconclusive: 89.1 µM [inhibitor, single point] |  |
| COc1ccc(C(=O)N(CN2CCCC2=O)c2ccc(C)cc2)cc1 |  | inactive: 21.1% |
| C=CCC[C@@H](Cc1ccc(F)cc1)C(=O)OC[C@@H](NC(=O)[C@@H](CC=C)CC(=O)N(CCO)Cc1ccccc1)c1ccccc1 |  | inactive: -20.7% |
| CS(=O)(=O)N(CC(=O)NCc1ccccn1)Cc1ccc(Cl)cc1 | active: 11.2 µM |  |
| C/C(=N\Nc1cccc2cccnc12)c1ccc[nH]1 | inconclusive: 44.7 µM [inhibitor, partial curve] |  |
| COC(=O)Nc1ccc(S(=O)(=O)N2CCN(C)CC2)cc1 | active: 79.4 µM |  |
| COC(=O)Cn1c(=O)c(C)nc2ccccc21 | inconclusive: 12.6 µM [inhibitor, partial curve, poor fit] |  |
| N#Cc1c(Nc2cccc(F)c2)sc2c(O)cc(=O)[nH]c12 |  | inactive: -21% |

| SMILES | Potency | activity change, negative = inhibition |
| --- | --- | --- |
| Cc1cnc(C=NNC(N)=S)c2cccc(N)c12 | active: 50.1 µM |  |
| CCN(CC)C(=O)CSc1nnc(-c2ccccn2)n1-c1ccc(C)c(C)c1 | inconclusive: 89.1 µM [inhibitor, single point] |  |
| COc1ccc(OC)c(NC(=O)N2CCC3(CC2)Oc2ccccc2C(=O)N3Cc2ccccc2F)c1 | inconclusive: 44.7 µM [inhibitor, partial curve] |  |
| NNc1ncnc2sc3c(c12)CCC3 | active: 22.4 µM |  |
| N#Cc1nc(-c2ccco2)oc1NCc1ccc(F)cc1 |  | inactive: -28.8% |
| COc1ccc(-n2c(C)cc(C(=O)COC(=O)c3ccc(O)cc3O)c2C)cc1 | inconclusive: 35.5 µM [inhibitor, partial curve] |  |
| CCCCCNC(=O)c1ccc(NS(=O)(=O)c2ccc3[nH]c(=O)[nH]c3c2)cc1 | inconclusive: 39.8 µM [inhibitor, single point] |  |
| CCOc1ccc(/C=C2\SC(=S)N(CCCC(=O)NCCCN3CCOCC3)C2=O)cc1 | inconclusive: 25.1 µM [inhibitor, full curve] |  |
| Cc1ccc(C2=NCCn3nc4cc([N+](=O)[O-])ccc4c32)cc1 | inconclusive: 56.2 µM [inhibitor, partial curve] |  |
| COc1ccc2nc(N(Cc3cccnc3)C(=O)c3ccc(Cl)cc3)sc2c1 |  | inactive: -12.7% |
| Cn1c(=O)c(=O)n(C)c2cc(N3CCCC3)c(NC(=O)c3ccccc3Cl)cc21 |  | inactive: 6.85% |
| Cc1nn(CC(O)CN2c3ccccc3Sc3ccccc32)c(C)c1Br (stereo unspecified) | inconclusive: 39.8 µM [inhibitor, single point] |  |
| COC(=O)c1ccc2nc(NC(=O)CSCC(=O)OCC(=O)c3ccccc3)sc2c1 | inconclusive: 39.8 µM [inhibitor, single point] |  |
| Cc1cc(-n2c(C)cc(C(=O)CSc3nnnn3-c3ccc(Cl)cc3)c2C)no1 | inconclusive: 89.1 µM [inhibitor, partial curve] |  |
| COn1c(SC(C)C)nc2ccccc2c1=O |  | inactive: 11.2% |
| CCOc1ccc(N2CC(=O)Nc3ccccc3NCC2=O)cc1 | inconclusive: 50.1 µM [inhibitor, partial curve] |  |
| O=C(CN1CCSc2ccccc21)NCCCc1ccccc1 | inconclusive: 20 µM [inhibitor, partial curve] |  |
| CC[n+]1c(P(=O)([O-])c2ccccc2)[nH]c2ccccc21 | inconclusive: 44.7 µM [inhibitor, partial curve] |  |
| Cc1ccc(Sc2cc(NCCCO)c([N+](=O)[O-])c3nonc23)cc1 |  | inactive: -11.8% [at 11.4 µM] |
| COc1ccc(NC(C)=O)cc1NC(C)C(=O)Nc1ccc(S(=O)(=O)N2CCCCC2)cc1 (stereo unspecified) | inconclusive: 56.2 µM [inhibitor, partial curve] |  |
| Cc1cccc(NCCC(=O)c2ccc([N+](=O)[O-])cc2)c1C | inconclusive: 14.1 µM [inhibitor, full curve] |  |
| COc1ccc(CN(CCC(c2ccccc2)c2ccco2)C(=O)c2ccco2)cc1 (stereo unspecified) | inconclusive: 39.8 µM [inhibitor, partial curve] |  |
| CCCN1CCc2c(sc(NC(=S)NC(=O)c3ccccc3)c2C#N)C1 | inconclusive: 35.5 µM [inhibitor, full curve] |  |
